Our source for the Kd values is publication PMC10866649.

Some entries of the source have several records that differ or are many. Only these are listed. There may be further records. The values listed for one entry appear to be repeats (runs, samples, wells or individuals); one of them may be the mean.

The experiment deals with Wild-type human IgG1 Fc (human). The experiment can be described thus: SPR + BLI; Fcs immobilised on chips or captured on biosensors; human or mouse FcRn at 1,600 nM to 50 nM in 2-fold dilutions, pH 6.0; Biacore 3000 and Octet K2 both named.

With “Human neonatal Fc receptor (FcRn) (from UniProt P55899 24-297; P61769 21-119)”, the Kd is 138 nM, 845 nM, 1.88 µM [columns of one line].
